# The supplement of paper PMC8728848
# The list shows a part of the results.
# What was measured:
# Assay in all cases: glycan array binding signal (z-score within array); higher = stronger binding
# Conditions in all cases: glycan notation: IUPAC condensed, linker removed
# [1] = target: Neu5Ac(a2-3)Gal(b1-3)GlcNAc(b1-2)Man
# Outline: (§1)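 Columns mapping to the same glycan were averaged after glycan names were converted to IUPAC-condensed notation. The data come from 3228 arrays in the Consortium for Functional Glycomics database, limited to those with an available protein sequence. Binding is reported as a within-array Z-score averaged across arrays of one protein sequence and across linkers.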
# [2] = target: Neu5Ac(a2-3)Gal(b1-3)GlcNAc(b1-2)Man(a1-3)[GlcNAc(b1-4)][Neu5Ac(a2-3)Gal(b1-3)GlcNAc(b1-2)Man(a1-6)]Man(b1-4)GlcNAc(b1-4)GlcNAc
# Outline: as §1
# [3] = target: Neu5Ac(a2-3)Gal(b1-3)GlcNAc(b1-2)Man(a1-3)[Neu5Ac(a2-3)Gal(b1-3)GlcNAc(b1-2)Man(a1-6)]Man(b1-4)GlcNAc(b1-4)GlcNAc
# Outline: as §1
# [4] = target: Neu5Ac(a2-3)Gal(b1-3)GlcNAc(b1-2)[Neu5Ac(a2-3)Gal(b1-3)GlcNAc(b1-4)]Man(a1-6)[Neu5Ac(a2-3)Gal(b1-3)GlcNAc(b1-2)Man(a1-3)]Man(b1-4)GlcNAc(b1-4)GlcNAc
# Outline: as §1
# [5] = target: Neu5Ac(a2-3)Gal(b1-3)GlcNAc(b1-3)Gal(b1-3)GlcNAc
# Outline: as §1
# [6] = target: Neu5Ac(a2-3)Gal(b1-3)GlcNAc(b1-3)Gal(b1-4)GlcNAc
# Outline: as §1
# [7] = target: Neu5Ac(a2-3)Gal(b1-3)GlcNAc(b1-3)GalNAc
# Outline: as §1
# [8] = target: Neu5Ac(a2-3)Gal(b1-3)GlcNAc(b1-6)GalNAc
# Outline: as §1
# [9] = target: Neu5Ac(a2-3)Gal(b1-3)GlcNAc6S
# Outline: as §1
# [10] = target: Neu5Ac(a2-3)Gal(b1-3)[Fuc(a1-4)]GlcNAc
# Outline: as §1
# [11] = target: Neu5Ac(a2-3)Gal(b1-3)[Fuc(a1-4)]GlcNAc(b1-3)Gal(b1-3)[Fuc(a1-4)]GlcNAc
# Outline: as §1
# [12] = target: Neu5Ac(a2-3)Gal(b1-3)[Fuc(a1-4)]GlcNAc(b1-3)Gal(b1-4)[Fuc(a1-3)]GlcNAc
# Outline: as §1
# [13] = target: Neu5Ac(a2-3)Gal(b1-3)[GlcNAc(b1-6)]GalNAc
# Outline: as §1
# [14] = target: Neu5Ac(a2-3)Gal(b1-3)[Neu5Ac(a2-6)]GalNAc
# Outline: as §1
# [15] = target: Neu5Ac(a2-3)Gal(b1-3)[Neu5Ac(a2-6)]GlcNAc(b1-3)[Fuc(a1-3)[Gal(b1-4)]GlcNAc(b1-6)]Gal(b1-4)Glc
# Outline: as §1
# [16] = target: Neu5Ac(a2-3)Gal(b1-3)]Neu5Ac(a2-3)Gal(b1-4)]GlcNAc
# Outline: as §1
# Neu5Ac(a2-3)Gal(b1-4)Glc = target: Neu5Ac(a2-3)Gal(b1-4)Glc
# Outline: as §1
# [17] = target: Neu5Ac(a2-3)Gal(b1-4)GlcNAc
# Outline: as §1
# [18] = target: Neu5Ac(a2-3)Gal(b1-4)GlcNAc(b1-2)Man
# Outline: as §1
# [19] = target: Neu5Ac(a2-3)Gal(b1-4)GlcNAc(b1-2)Man(a1-3)[GlcNAc(b1-4)][Neu5Ac(a2-3)Gal(b1-4)GlcNAc(b1-2)Man(a1-6)]Man(b1-4)GlcNAc(b1-4)GlcNAc
# Outline: as §1
# [20] = target: Neu5Ac(a2-3)Gal(b1-4)GlcNAc(b1-2)Man(a1-3)[Neu5Ac(a2-3)Gal(b1-4)GlcNAc(b1-2)Man(a1-6)]Man(b1-4)GlcNAc(b1-4)GlcNAc
# Outline: as §1
# [21] = target: Neu5Ac(a2-3)Gal(b1-4)GlcNAc(b1-2)Man(a1-3)[Neu5Ac(a2-3)Gal(b1-4)GlcNAc(b1-2)Man(a1-6)]Man(b1-4)GlcNAc(b1-4)[Fuc(a1-6)]GlcNAc
# Outline: as §1
# [22] = target: Neu5Ac(a2-3)Gal(b1-4)GlcNAc(b1-2)Man(a1-3)[Neu5Ac(a2-6)Gal(b1-4)GlcNAc(b1-2)Man(a1-6)]Man(b1-4)GlcNAc(b1-4)GlcNAc
# Outline: as §1
# [23] = target: Neu5Ac(a2-3)Gal(b1-4)GlcNAc(b1-2)[Neu5Ac(a2-3)Gal(b1-4)GlcNAc(b1-4)]Man(a1-3)[GlcNAc(b1-4)][Neu5Ac(a2-3)Gal(b1-4)GlcNAc(b1-2)[Neu5Ac(a2-3)Gal(b1-4)GlcNAc(b1-6)]Man(a1-6)]Man(b1-4)GlcNAc(b1-4)GlcNAc
# Outline: as §1
# [24] = target: Neu5Ac(a2-3)Gal(b1-4)GlcNAc(b1-2)[Neu5Ac(a2-3)Gal(b1-4)GlcNAc(b1-4)]Man(a1-3)[GlcNAc(b1-4)][Neu5Ac(a2-3)Gal(b1-4)GlcNAc(b1-4)Man(a1-6)]Man(b1-4)GlcNAc(b1-4)GlcNAc
# Outline: as §1
# [25] = target: Neu5Ac(a2-3)Gal(b1-4)GlcNAc(b1-2)[Neu5Ac(a2-3)Gal(b1-4)GlcNAc(b1-6)]Man(a1-6)[Neu5Ac(a2-3)Gal(b1-4)GlcNAc(b1-2)Man(a1-3)][GlcNAc(b1-4)]Man(b1-4)GlcNAc(b1-4)GlcNAc
# Outline: as §1
# [26] = target: Neu5Ac(a2-3)Gal(b1-4)GlcNAc(b1-3)Gal
# Outline: as §1
# [27] = target: Neu5Ac(a2-3)Gal(b1-4)GlcNAc(b1-3)Gal(b1-3)GlcNAc
# Outline: as §1
# [28] = target: Neu5Ac(a2-3)Gal(b1-4)GlcNAc(b1-3)Gal(b1-4)GlcNAc
# Outline: as §1
# [29] = target: Neu5Ac(a2-3)Gal(b1-4)GlcNAc(b1-3)Gal(b1-4)GlcNAc(b1-2)Man(a1-3)[Neu5Ac(a2-3)Gal(b1-4)GlcNAc(b1-3)Gal(b1-4)GlcNAc(b1-2)Man(a1-6)]Man(b1-4)GlcNAc(b1-4)GlcNAc
# Outline: as §1
# [30] = target: Neu5Ac(a2-3)Gal(b1-4)GlcNAc(b1-3)Gal(b1-4)GlcNAc(b1-3)Gal(b1-4)GlcNAc
# Outline: as §1
# [31] = target: Neu5Ac(a2-3)Gal(b1-4)GlcNAc(b1-3)Gal(b1-4)GlcNAc(b1-3)Gal(b1-4)GlcNAc(b1-2)Man(a1-3)[Neu5Ac(a2-3)Gal(b1-4)GlcNAc(b1-3)Gal(b1-4)GlcNAc(b1-3)Gal(b1-4)GlcNAc(b1-2)Man(a1-6)]GalNAc
# Outline: as §1
# [32] = target: Neu5Ac(a2-3)Gal(b1-4)GlcNAc(b1-3)Gal(b1-4)GlcNAc(b1-3)GalNAc
# Outline: as §1
# [33] = target: Neu5Ac(a2-3)Gal(b1-4)GlcNAc(b1-3)Gal(b1-4)GlcNAc(b1-3)[Neu5Ac(a2-3)Gal(b1-4)GlcNAc(b1-3)Gal(b1-4)GlcNAc(b1-6)]GalNAc
# Outline: as §1
# [34] = target: Neu5Ac(a2-3)Gal(b1-4)GlcNAc(b1-3)Gal(b1-4)GlcNAc(b1-6)[Gal(b1-3)]GalNAc
# Outline: as §1
# [35] = target: Neu5Ac(a2-3)Gal(b1-4)GlcNAc(b1-3)Gal(b1-4)[Fuc(a1-3)]GlcNAc
# Outline: as §1
# [36] = target: Neu5Ac(a2-3)Gal(b1-4)GlcNAc(b1-3)GalNAc
# Outline: as §1
# [37] = target: Neu5Ac(a2-3)Gal(b1-4)GlcNAc(b1-3)[Neu5Ac(a2-3)Gal(b1-4)GlcNAc(b1-6)]GalNAc
# Outline: as §1
binder,measurement,setting,value
B725 (Bifidobacterium sp) (protein) MNNTTRAVIATAAIGALLIPLAGCGNTTTSSGKTELTVWSWDASIDRAAKSFMKANPDITVKVSNVGSTEETYTALNNAAQAGSGLPDVTLIEYLAIPQFVHSDTLMDLSKVYNTAKLKDTFTPGTWNSVNINGGLYAMPADSGPMAYFYDKDVFDKAGISEPPTTWDEFYEDAKKIRATGSYITSDSGDAGLFNAMMWAMGGHAYKLNDDKLTINIAKDKGAQRFMDLWQKMRDEDLIDVHTKTWTDDWMKSLGDGSIASLISGAWMANNLLQGVPQATGKFRVALLPTIDGTPINGEYGGSGLAITKKIPDGKLDAAKKFVEYVTTNDEGIDARVSNGSFPATTKTLNQKDFLAKTTLRNTDGSDNEFFGGQKYNEIFSQAAKDVTGKWEFLPFEPYARSVYNDNMGSFFAGKTSFRTAADNWQKALKDYAKDQGFTVQ,glycan array binding signal (z-score),[1],-0.219
same,glycan array binding signal (z-score),[2],-0.204
same,glycan array binding signal (z-score),[3],-0.156
same,glycan array binding signal (z-score),[4],-0.201
same,glycan array binding signal (z-score),[5],-0.231
same,glycan array binding signal (z-score),[6],-0.229
same,glycan array binding signal (z-score),[7],-0.225
same,glycan array binding signal (z-score),[8],-0.206
same,glycan array binding signal (z-score),[9],-0.226
same,glycan array binding signal (z-score),[10],-0.209
same,glycan array binding signal (z-score),[11],-0.218
same,glycan array binding signal (z-score),[12],-0.18
same,glycan array binding signal (z-score),[13],-0.221
same,glycan array binding signal (z-score),[14],-0.218
same,glycan array binding signal (z-score),[15],-0.226
same,glycan array binding signal (z-score),[16],-0.215
same,glycan array binding signal (z-score),Neu5Ac(a2-3)Gal(b1-4)Glc,-0.228
same,glycan array binding signal (z-score),[17],-0.223
same,glycan array binding signal (z-score),[18],-0.207
same,glycan array binding signal (z-score),[19],-0.218
same,glycan array binding signal (z-score),[20],-0.239
same,glycan array binding signal (z-score),[21],-0.203
same,glycan array binding signal (z-score),[22],-0.239
same,glycan array binding signal (z-score),[23],-0.223
same,glycan array binding signal (z-score),[24],-0.218
same,glycan array binding signal (z-score),[25],-0.231
same,glycan array binding signal (z-score),[26],-0.226
same,glycan array binding signal (z-score),[27],-0.221
same,glycan array binding signal (z-score),[28],-0.227
same,glycan array binding signal (z-score),[29],0.044
same,glycan array binding signal (z-score),[30],0.601
same,glycan array binding signal (z-score),[31],-0.042
same,glycan array binding signal (z-score),[32],-0.193
same,glycan array binding signal (z-score),[33],-0.054
same,glycan array binding signal (z-score),[34],-0.203
same,glycan array binding signal (z-score),[35],-0.21
same,glycan array binding signal (z-score),[36],-0.207
same,glycan array binding signal (z-score),[37],-0.216
